Laboratory results reported in paper PMC4571095.
Results are given in words; binding and its absence hold for the method and conditions named. In cells and extracts the contact can be indirect. Some binding calls cover weakened binding; strength is not graded here. For part of these data: Sequences can lack the tags named with a protein.

The chains behind the UniProt entries cited, without tags or fusion partners.
UniProt P60880: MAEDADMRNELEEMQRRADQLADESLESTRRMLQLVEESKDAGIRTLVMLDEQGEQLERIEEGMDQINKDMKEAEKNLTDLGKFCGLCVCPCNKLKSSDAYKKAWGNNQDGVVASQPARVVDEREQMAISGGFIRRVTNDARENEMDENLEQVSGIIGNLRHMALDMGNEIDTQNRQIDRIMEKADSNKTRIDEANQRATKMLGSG
UniProt Q96A65: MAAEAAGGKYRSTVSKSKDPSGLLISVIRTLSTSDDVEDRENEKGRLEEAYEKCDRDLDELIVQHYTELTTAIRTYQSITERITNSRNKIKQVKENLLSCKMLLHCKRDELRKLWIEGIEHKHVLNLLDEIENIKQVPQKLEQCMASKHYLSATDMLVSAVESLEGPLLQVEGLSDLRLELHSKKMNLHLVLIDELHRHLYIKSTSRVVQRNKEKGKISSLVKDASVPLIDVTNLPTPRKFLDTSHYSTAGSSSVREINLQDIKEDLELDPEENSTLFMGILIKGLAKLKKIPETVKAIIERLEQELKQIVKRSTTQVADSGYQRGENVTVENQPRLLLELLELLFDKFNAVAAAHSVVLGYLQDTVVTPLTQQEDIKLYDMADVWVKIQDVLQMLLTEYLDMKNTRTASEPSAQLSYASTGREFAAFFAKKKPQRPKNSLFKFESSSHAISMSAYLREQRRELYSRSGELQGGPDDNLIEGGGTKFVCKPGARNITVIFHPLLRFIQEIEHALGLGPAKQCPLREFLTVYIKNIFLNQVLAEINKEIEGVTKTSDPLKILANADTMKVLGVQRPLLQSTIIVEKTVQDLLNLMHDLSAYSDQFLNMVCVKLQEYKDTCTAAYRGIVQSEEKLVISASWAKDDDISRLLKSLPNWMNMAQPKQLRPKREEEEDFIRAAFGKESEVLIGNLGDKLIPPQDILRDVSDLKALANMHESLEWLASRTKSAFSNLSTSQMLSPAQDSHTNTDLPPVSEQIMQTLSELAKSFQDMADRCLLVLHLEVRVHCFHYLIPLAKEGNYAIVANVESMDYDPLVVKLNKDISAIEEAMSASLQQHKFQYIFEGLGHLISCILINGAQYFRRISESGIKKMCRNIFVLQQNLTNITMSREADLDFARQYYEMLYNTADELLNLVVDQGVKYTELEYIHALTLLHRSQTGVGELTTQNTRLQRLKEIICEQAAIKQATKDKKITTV
UniProt Q9NV70: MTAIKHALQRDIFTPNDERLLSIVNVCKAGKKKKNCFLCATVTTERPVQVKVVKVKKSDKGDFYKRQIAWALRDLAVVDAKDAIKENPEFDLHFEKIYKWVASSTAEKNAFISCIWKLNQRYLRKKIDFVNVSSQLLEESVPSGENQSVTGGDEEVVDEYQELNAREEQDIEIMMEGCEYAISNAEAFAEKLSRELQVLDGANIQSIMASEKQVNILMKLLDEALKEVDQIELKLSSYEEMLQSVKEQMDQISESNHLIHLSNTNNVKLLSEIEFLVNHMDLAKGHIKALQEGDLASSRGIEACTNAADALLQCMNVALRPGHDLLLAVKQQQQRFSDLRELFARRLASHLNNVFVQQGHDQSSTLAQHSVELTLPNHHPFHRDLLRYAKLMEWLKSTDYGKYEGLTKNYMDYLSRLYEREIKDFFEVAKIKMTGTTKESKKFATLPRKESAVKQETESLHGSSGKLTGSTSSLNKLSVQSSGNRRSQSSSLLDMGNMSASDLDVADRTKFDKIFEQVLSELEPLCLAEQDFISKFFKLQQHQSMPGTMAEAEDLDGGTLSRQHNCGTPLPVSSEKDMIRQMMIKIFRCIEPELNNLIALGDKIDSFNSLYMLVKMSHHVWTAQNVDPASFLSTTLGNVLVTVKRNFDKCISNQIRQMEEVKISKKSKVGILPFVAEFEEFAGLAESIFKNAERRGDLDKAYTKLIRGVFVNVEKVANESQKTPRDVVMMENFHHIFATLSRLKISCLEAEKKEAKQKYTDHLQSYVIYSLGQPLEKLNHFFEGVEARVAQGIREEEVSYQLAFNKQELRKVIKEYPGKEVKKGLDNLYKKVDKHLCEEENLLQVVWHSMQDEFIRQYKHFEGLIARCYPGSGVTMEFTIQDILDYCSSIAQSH
UniProt Q96KP1: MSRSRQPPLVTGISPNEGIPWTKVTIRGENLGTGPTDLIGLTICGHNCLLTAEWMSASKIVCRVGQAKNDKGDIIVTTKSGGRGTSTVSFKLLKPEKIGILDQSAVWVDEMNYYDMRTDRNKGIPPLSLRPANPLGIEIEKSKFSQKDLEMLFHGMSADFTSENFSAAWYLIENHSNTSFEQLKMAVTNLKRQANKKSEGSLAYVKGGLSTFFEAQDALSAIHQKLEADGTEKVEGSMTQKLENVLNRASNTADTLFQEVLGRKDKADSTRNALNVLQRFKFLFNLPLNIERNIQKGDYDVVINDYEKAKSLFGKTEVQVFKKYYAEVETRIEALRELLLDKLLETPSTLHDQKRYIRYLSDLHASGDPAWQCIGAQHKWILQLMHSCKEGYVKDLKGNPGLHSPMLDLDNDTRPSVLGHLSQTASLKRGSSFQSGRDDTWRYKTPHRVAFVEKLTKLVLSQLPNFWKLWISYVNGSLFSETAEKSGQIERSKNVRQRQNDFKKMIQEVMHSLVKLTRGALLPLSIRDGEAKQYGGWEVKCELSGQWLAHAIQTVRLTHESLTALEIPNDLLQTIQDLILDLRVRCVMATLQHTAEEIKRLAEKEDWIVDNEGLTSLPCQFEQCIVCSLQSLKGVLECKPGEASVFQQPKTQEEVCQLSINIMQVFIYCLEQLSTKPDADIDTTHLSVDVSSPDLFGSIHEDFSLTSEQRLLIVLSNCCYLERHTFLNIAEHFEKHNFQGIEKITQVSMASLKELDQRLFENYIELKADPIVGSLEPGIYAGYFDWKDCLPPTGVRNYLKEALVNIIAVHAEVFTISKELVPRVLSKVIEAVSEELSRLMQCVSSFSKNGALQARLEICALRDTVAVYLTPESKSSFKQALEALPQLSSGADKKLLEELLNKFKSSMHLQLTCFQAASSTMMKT
UniProt O00471: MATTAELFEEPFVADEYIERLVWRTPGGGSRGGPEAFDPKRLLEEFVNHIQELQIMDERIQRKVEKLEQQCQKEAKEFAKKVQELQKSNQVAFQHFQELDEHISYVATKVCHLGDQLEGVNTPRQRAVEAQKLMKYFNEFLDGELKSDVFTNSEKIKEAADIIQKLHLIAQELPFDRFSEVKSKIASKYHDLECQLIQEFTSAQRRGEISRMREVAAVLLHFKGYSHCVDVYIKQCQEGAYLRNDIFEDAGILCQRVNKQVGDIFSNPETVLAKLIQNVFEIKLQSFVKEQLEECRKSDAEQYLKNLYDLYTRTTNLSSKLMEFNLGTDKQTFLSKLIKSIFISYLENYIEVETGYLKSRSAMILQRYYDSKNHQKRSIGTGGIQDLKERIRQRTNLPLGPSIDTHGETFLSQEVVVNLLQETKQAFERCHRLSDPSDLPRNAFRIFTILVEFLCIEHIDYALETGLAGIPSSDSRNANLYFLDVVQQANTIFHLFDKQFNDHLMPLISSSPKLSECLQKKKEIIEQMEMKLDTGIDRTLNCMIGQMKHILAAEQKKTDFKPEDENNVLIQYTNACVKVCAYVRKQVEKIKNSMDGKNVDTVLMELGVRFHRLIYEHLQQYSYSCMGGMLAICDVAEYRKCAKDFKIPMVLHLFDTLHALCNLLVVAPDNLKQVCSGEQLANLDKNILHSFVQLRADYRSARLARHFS
UniProt O60645: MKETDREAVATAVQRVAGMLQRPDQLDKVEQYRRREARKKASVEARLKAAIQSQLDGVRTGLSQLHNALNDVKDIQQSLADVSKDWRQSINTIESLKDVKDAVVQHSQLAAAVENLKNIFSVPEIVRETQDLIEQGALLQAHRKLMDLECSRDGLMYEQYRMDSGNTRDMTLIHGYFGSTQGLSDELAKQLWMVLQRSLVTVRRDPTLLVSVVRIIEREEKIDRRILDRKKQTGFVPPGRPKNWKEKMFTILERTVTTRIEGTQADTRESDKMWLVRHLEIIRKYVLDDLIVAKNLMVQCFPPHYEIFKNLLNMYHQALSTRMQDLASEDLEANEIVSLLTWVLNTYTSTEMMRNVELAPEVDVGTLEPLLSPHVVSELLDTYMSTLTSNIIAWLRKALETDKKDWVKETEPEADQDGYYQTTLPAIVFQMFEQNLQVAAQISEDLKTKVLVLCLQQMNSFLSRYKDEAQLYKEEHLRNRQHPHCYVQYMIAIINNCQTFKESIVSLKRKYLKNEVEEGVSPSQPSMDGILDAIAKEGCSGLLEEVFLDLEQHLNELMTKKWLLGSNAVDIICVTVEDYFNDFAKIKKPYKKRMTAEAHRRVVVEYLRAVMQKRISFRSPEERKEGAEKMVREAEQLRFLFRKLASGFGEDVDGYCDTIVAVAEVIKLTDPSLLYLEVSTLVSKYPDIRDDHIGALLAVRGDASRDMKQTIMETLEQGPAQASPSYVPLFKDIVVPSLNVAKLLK

The substances below were run against EGFP-tagged SNAP25 (human) (UniProt P60880) (assay: co-IP; HEK293T cells transfected with EGFP-SNAP23 or -SNAP25 alone; lysate precipitated with GST-anti-GFP Nanobody on glutathione-Sepharose 4B beads; immunoblot for endogenous Sec8 or Exo70).

binding	Substance
binds	endogenous Sec8 (from UniProt Q96A65 1-974)

The substances below were run against EGFP-tagged SNAP25 (human) (UniProt P60880) (assay: co-IP; HEK293T cells cotransfected with EGFP-SNAP23 or -SNAP25 and a tRFP- or mCherry-tagged exocyst subunit; lysis buffer 50 mM Tris-HCl pH 7.4, 150 mM NaCl, 0.1% NP-40; lysate incubated with GST-anti-GFP Nanobody prebound to glutathione-Sepharose 4B beads, 4°C, 1 h; immunoblot with anti-tRFP, anti-RFP or anti-GFP).

Substance	binding
Sec8-tRFP (exocyst subunit Sec8, C-terminally tagRFP-tagged) (from UniProt Q96A65 1-974)	binds
mCherry-tagged Sec3 (from UniProt Q9NV70 1-894)	no binding
mCherry-tagged Sec5 (from UniProt Q96KP1 1-924)	no binding
mCherry-tagged Sec10 (from UniProt O00471 1-708)	no binding

The substances below were run against T1, EGFP-tagged SNAP23 (human) (UniProt O00161) in the same assay as above.
T1 sequence: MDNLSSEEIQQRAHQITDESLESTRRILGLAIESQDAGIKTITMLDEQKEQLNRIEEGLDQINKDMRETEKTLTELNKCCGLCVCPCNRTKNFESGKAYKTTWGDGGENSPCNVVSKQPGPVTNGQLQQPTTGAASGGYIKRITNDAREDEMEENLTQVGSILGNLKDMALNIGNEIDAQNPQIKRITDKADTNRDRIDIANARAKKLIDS

Substance	binding
mCherry-tagged Sec3 (from UniProt Q9NV70 1-894)	no binding
mCherry-tagged Sec5 (from UniProt Q96KP1 1-924)	no binding
mCherry-tagged Sec10 (from UniProt O00471 1-708)	no binding
tRFP-Sec6 (exocyst subunit Sec6, N-terminally tagRFP-tagged) (from UniProt O60645 1-745)	binds
